The text below walks through data of PubChem BioAssay AID485344 (National Center for Advancing Translational Sciences (NCATS), 2010).

Screen size: about 340,000 compounds; about 6,900 (2%) were called active. Cut-off read from the data, not from the text of the source: active = inhibition above about 30%; inactive = below that, where a call was filed. The entries are a selection whose mix differs from that of the whole data set. Where no call is shown, the source filed none.

Sequence of UniProt P14416 (P14416 whole entry, looked up): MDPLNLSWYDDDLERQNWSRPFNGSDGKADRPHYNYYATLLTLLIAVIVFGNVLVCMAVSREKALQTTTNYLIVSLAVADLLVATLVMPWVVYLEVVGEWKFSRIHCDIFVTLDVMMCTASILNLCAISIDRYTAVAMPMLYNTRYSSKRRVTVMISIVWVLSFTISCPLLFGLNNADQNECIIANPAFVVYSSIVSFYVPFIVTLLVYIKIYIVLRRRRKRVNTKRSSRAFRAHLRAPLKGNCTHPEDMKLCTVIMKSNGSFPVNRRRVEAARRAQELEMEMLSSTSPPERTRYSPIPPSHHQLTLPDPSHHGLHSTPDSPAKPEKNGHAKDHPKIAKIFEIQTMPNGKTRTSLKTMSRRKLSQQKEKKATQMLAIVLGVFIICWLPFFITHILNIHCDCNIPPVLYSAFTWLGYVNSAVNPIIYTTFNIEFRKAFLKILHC

The test has as its target D(2) dopamine receptor (Homo sapiens) (UniProt P14416). The test is described as follows: HTS Assay for Allosteric Antagonists of the Human D2 Dopamine Receptor: Primary Screen for Antagonists. Note: 0% is about no effect. To be noted: HEK293 TREx D2 cells, calcium flux, dopamine EC80; at 10 µM; stronger effect = higher value. In a few lines:
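Dopamine at EC80 is the agonist stimulus; test compounds precede it by 180 s. Calcium flux read kinetically in a force-coupled, inducible HEK293 T-REx D2 cell line.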
A general note: Calcium flux is commonly read through the fluorescence of an indicator in the cells.
The inhibition is the change of the read-out against control, counted positive when it falls. With `Oc1c(C(c2ccc(Cl)cc2)N2CCOCC2)sc2nc(-c3ccco3)nn12` (stereo unspecified), the inhibition was found to be 9.64%.

For `COc1cccc([C@H]2Nc3ccc(S(=O)(=O)Nc4cc(C)ccc4C)cc3[C@H]3C=CC[C@H]32)c1`, the inhibition is -15.1%.

Take `COc1ccccc1OCC(=O)Nc1cc(-c2ccc(C)cc2)no1`: the inhibition was determined as 6.31%.

On to `Fc1cccc(CSc2nc(NCCc3ccccc3)c3ccccc3n2)c1`, for which the inhibition is -9.48%.

On to `COc1ccc(CCNC(=O)Cn2c(-c3cccs3)cc3cc(F)ccc32)cc1OC`, for which the inhibition is -1.21%.

For the molecule `COc1ccc(C2=C(N3CCN(c4cc(Cl)ccc4C)CC3)c3ccccc3C2=O)cc1`, the inhibition is -2.97%.

Take `COc1ccc(NC(=O)c2oc3ccccc3c2NC(=O)c2cc(OC)c(OC)c(OC)c2)cc1`: the inhibition was determined as 10.1%.

For the molecule `COc1cccc(CNC(=O)c2ccc(CS(=O)c3ccccc3)o2)c1` (stereo unspecified), the inhibition is -18.5%.

Take `COc1ccc(CCNC(=O)CN2C(=O)COc3ccccc32)cc1OC`: the inhibition was -22.4%.

In the case of `Cc1cccc(Oc2nc3c(c(=O)n(C)c(=O)n3C)n2C)c1C`, the inhibition was -4.28%.

Consider `N#Cc1c(-c2ccccc2)cc(-c2ccccc2)nc1SCC(=O)Nc1ccc(Cl)cc1`, for which the inhibition was 7.86%.

For `Cc1ccccc1-c1nn2c(=O)cc(CN3CCN(C(=O)c4ccccc4Br)CC3)nc2s1`, the inhibition is -7.31%.

On to `CCOC(=O)N1CCN(C(=O)c2cnn(-c3cccc(F)c3)c2-n2cccc2)CC1`, for which the inhibition is -0.753%.

Turning to `CCc1ccccc1NC(=O)C(CCSC)NS(=O)(=O)c1ccc2c(c1)oc(=O)n2C` (stereo unspecified), the inhibition worked out at 0.915%.

As for `COc1cc(Cl)c(C)cc1NC(=O)NC1COc2ccccc2C1` (stereo unspecified), the inhibition is 5.96%.

For the molecule `CCCNC(=O)Cn1c(=O)cc(C)c2c(C)nn(-c3cccc(F)c3)c21`, the inhibition was -5.06%.

Consider `COc1cc2nc(SCc3ccc(F)cc3)n3nc(CCn4c(C)nc5ccccc54)nc3c2cc1OC`, for which the inhibition was 3.6%.

In the case of `COc1ccc(CNC(=S)Nc2ccc(F)c(Cl)c2)cc1`, the inhibition is active: 68.2%.

For `CCOc1ccc(S(=O)(=O)N(CC(=O)NCCSCc2ccccc2)c2ccccc2)cc1`, the inhibition is -4.43%.

`CCOc1ccccc1NC(=O)N1CCN(Cc2cc(=O)n3nc(-c4ccc(C)cc4)sc3n2)CC1`: the inhibition is -0.919%.

For the molecule `C[C@@H]1CC2OC(=O)[C@@]3(C)C(=O)CC[C@@](C)(C23)[C@@]1(O)CCc1ccoc1` (stereo partly specified), the inhibition is active: 30.1%.

`COc1ccc(S(=O)(=O)N2CCCCCC2)cc1C(=O)N(C)Cc1ccc(Cl)cc1Cl`: the inhibition was active: 46.9%.

`CCOC(=O)c1ccccc1NC(=O)CSc1ncc2c(n1)-c1ccccc1N(CC)S2(=O)=O`: the inhibition was 11.5%.

For the molecule `Cc1nn(C)c2c1c(-c1ccccc1)cc(=O)n2CC(=O)NC(C)(C)C`, the inhibition turned out to be 16.4%.

On to `CCC(C)n1c(=N)c(S(=O)(=O)c2ccccc2)cc2c(=O)n3ccccc3nc21` (stereo unspecified), for which the inhibition was 13.5%.

Regarding `CCN(CC)S(=O)(=O)c1cccc(NC(=O)COC(=O)C2=COCCO2)c1`, the inhibition is active: 30.5%.

For the molecule `CCCOc1ccc(C(=O)NNC(=S)NC(=O)CC)cc1`, the inhibition was active: 72.4%.

For `CCC(=O)Nc1cccc(-c2cn3c(C)csc3n2)c1`, the inhibition was 0.519%.

Turning to `O=C(CCC1N=C2c3ccccc3N=C(SCc3cccc(Cl)c3)N2C1=O)NCc1cccs1` (stereo unspecified), the inhibition was -13.7%.

Consider `COc1cccc(C(=O)N(Cc2cccc(Cl)c2)Cc2ccco2)c1`, for which the inhibition was 1.43%.

Consider `CC(C)(C)c1ccc(OCC(=O)Nc2c(C(=O)c3ccc(F)cc3)oc3ccccc23)cc1`, for which the inhibition was determined as 0.458%.

As for `COc1cc(C(=O)NCCSc2c(-c3ccccc3)[nH]c3ccccc23)cc(OC)c1OC`, the inhibition was found to be 3.15%.

On to `CSc1cccc(NC(=O)c2ccc3c(c2)c(C)c(C)n3Cc2ccc(F)cc2)c1`, for which the inhibition was 4.62%.

With `CCc1ccc(S(=O)(=O)c2cn(C)c3cc(N4CCN(CC)CC4)c(F)cc3c2=O)cc1`, the inhibition is 2.12%.

For `COc1ccc(CCCc2nnc(SCC(=O)Nc3ccc(C)c(C)c3)o2)cc1`, the inhibition was 2.63%.

With `Cc1cc(C)c2c(CC(=O)Nc3nnc(CC(C)C)s3)coc2c1`, the inhibition was -20.7%.

As to `CC(C)NS(=O)(=O)c1ccc(OCC(=O)N2CCN(c3ccccc3F)CC2)cc1`, the inhibition was determined as 0.291%.

Consider `CN(C)CCN(Cc1ccc(Cl)cc1)c1ccccn1`, for which the inhibition was active: 59.1%.

For `O=C(c1ccc(CS(=O)c2ccccc2Cl)o1)N1CCN(c2ccccc2F)CC1` (stereo unspecified), the inhibition came out at 8.66%.

As to `COc1ccccc1-c1c(C)nn2c(C(F)(F)F)cc(-c3ccccc3)nc12`, the inhibition is -3.54%.

Take `O=C(O)CCS(=O)(=O)c1cccc2cccnc12`: the inhibition is active: 31%.

Take `Fc1ccc(C2=NC(c3cccc(C(F)(F)F)c3)=Nc3ccccc3N2)cc1`: the inhibition was -13.2%.

With `CCC(=O)N1CCc2cc(S(=O)(=O)CCC(=O)N(C)c3ccc(OC)cc3)ccc21`, the inhibition came out at 5.44%.

Turning to `O=C(Nc1ccccc1C(=O)OCc1cc(=O)n2ccsc2n1)c1cccc(F)c1`, the inhibition is -17.2%.

`Cc1cc(Nc2cccc(Cl)c2)nc2ccc(NC(=O)c3ccc(F)cc3Cl)cc12`: the inhibition is -6.63%.

As for `COC(=O)c1c(NC(=O)CCCOc2ccccc2)sc2c1CCC(C)C2` (stereo unspecified), the inhibition turned out to be 21%.

With `Fc1cccc(CN2CCN(c3ncccn3)CC2)c1`, the inhibition is active: 82.8%.

With `Cc1cc(C)n2nc(C(=O)Nc3c(C)nn(Cc4ccc(F)cc4)c3C)cc2n1`, the inhibition was active: 51.5%.

For `CC(NCC(O)c1ccc([N+](=O)[O-])cc1)C12CC3CC(CC(C3)C1)C2` (stereo unspecified), the inhibition is active: 38.2%.

As for `O=C(NCCc1ccccc1)c1cc(-c2ccccc2)nc2n[nH]c(-c3ccccc3)c12`, the inhibition was -15.4%.

Consider `O=C(NCc1ccc(F)cc1)c1cccc(N2CCCS2(=O)=O)c1`, for which the inhibition is 11.2%.

`Cc1ccc(-c2cc(C(=O)NCCc3ccccc3)c3ccccc3n2)cc1C`: the inhibition amounted to 15.2%.

In the case of `Cc1ccccc1NC(=O)Cn1c(=O)n(Cc2ccco2)c(=O)c2cccnc21`, the inhibition is -10.8%.

In the case of `CN(C)c1ccc(/C=C(\C#N)c2nc3ccccc3c(=O)[nH]2)cc1`, the inhibition was -14.1%.

For the molecule `CCc1ccc2c(c1)c(=O)c(C(=O)c1ccc(C)cc1)cn2CC(=O)Nc1ccc2c(c1)OCCO2`, the inhibition is 21.5%.

Regarding `Cc1c(CCC(=O)NCCc2ccccc2F)c(=O)oc2cc(O)ccc12`, the inhibition stood at 10.3%.

On to `CCOc1ccc(NC(=O)NCCCN2CCN(c3ccc(OC)cc3)CC2)cc1`, for which the inhibition stood at 18.1%.

Take `O=C(c1ccc(CSc2nc3ccncc3n2Cc2ccccc2F)cc1)N1CCCCC1`: the inhibition was determined as 1.32%.

As for `CCOc1ccccc1Nc1sc(C(=O)c2ccc(Cl)cc2)c(N)c1C#N`, the inhibition was determined as 8.8%.

Regarding `CCOc1ccccc1CNC(=O)CN(c1ccc(C)cc1)S(=O)(=O)N(C)C`, the inhibition was -8.79%.

Regarding `COc1ccc(-c2nnc(SCC(=O)NCc3ccccc3)nc2-c2ccc(OC)c(OC)c2)cc1OC`, the inhibition is -8.89%.

As for `CC(C)(C)c1ccc(S(=O)(=O)c2cnc(SCC(=O)Nc3ccc(F)c(Cl)c3)[nH]c2=O)cc1`, the inhibition is 19.1%.

Regarding `CCOc1ccc(NC(=O)Cc2ccc(NC(=O)N3CCCCc4ccccc43)cc2)cc1`, the inhibition is 10.8%.

With `N#CCc1ccc(C(=O)c2ccccc2)s1`, the inhibition is active: 40%.

For `CCOC(=O)c1cc(-c2ccc(F)cc2)n(CC(=O)NCc2ccc(OC)cc2)c1C`, the inhibition was -3.86%.

`CC(C)CCNC(=O)CN1C(=O)c2cccnc2Oc2ccccc21`: the inhibition was found to be 2.79%.

`N#Cc1ccccc1S(=O)(=O)N1CCCC(c2nc3c(nnn3Cc3cccc(Cl)c3)c(=O)[nH]2)C1` (stereo unspecified): the inhibition was determined as 6.84%.

For the molecule `Cc1csc2nc(CCNS(=O)(=O)c3ccccc3)cn12`, the inhibition is -5.1%.

Regarding `CN(C)c1ccc(C(CNC(=O)c2ccccc2F)N2CCc3ccccc32)cc1` (stereo unspecified), the inhibition came out at 13.4%.

Regarding `CCCCNc1nc2c(S(=O)(=O)c3ccc(Cl)cc3)nnn2c2ccsc12`, the inhibition is -17.5%.

`Cc1nn(-c2ccccc2)c2c1N(CCCC(=O)NCc1ccc(Cl)cc1)C(=O)CS2`: the inhibition is -4.28%.

With `O=C(NCc1ccco1)c1c[nH]c2ccc(S(=O)(=O)Nc3ccc(F)cc3F)cc2c1=O`, the inhibition is -2.52%.

For the molecule `CN1CCN(C(=O)c2cnn(-c3cccc(Cl)c3)c2C2CCN(C(=O)OC(C)(C)C)CC2)CC1`, the inhibition was 7.12%.

On to `CCS(=O)(=O)c1nc2ccccc2n1CC(=O)Nc1ccccc1C(=O)OC`, for which the inhibition came out at 3.9%.

For the molecule `Oc1c(C(c2ccc(Br)cc2)N2CCOCC2)sc2nc(-c3ccco3)nn12` (stereo unspecified), the inhibition stood at 9.3%.

For `CCc1ccc(C(=O)c2c(N)c(-c3nc(-c4ccc5c(c4)OCO5)cs3)c3ccccn23)cc1`, the inhibition was determined as 5.08%.

For the molecule `COc1ccc2nc3sc(C(=O)N4CCN(c5ccccc5)CC4)cc3cc2c1`, the inhibition turned out to be 6.62%.

As for `Cc1c2cnn(-c3ccccc3)c(=O)c2c(C)n1CC(=O)N1CCN(c2ccc(F)cc2)CC1`, the inhibition is -11.9%.

On to `CCN(CCCNC(=O)CSc1cc(=O)n(C)c2cc(Cl)ccc12)c1cccc(C)c1`, for which the inhibition was determined as 0.78%.

Turning to `COc1cc(-c2noc(-c3ccc(N4CCOCC4)c([N+](=O)[O-])c3)n2)cc(OC)c1OC`, the inhibition came out at 18.2%.

Regarding `COc1cccc(-c2nc(CS(=O)(=O)CC(=O)Nc3cc(F)ccc3F)c(C)o2)c1`, the inhibition was determined as 2.07%.

In the case of `Cc1ccc(NC(=O)CSc2nc3ccccc3c3nc(CCn4cncc4C)nn23)c(C)c1`, the inhibition turned out to be 9.58%.

Consider `Cc1ccc(OCC(=O)N(Cc2ccco2)Cc2ccco2)cc1`, for which the inhibition was -8.34%.

Consider `CN(Cc1ccccc1)C(C(=O)NC1CCCCC1)c1ccc(Cl)cc1` (stereo unspecified), for which the inhibition was 27.1%.

Turning to `COc1cc(OC)c(NC(=O)CCn2cccn2)cc1Cl`, the inhibition is 6.49%.

In the case of `Fc1ccc(C(Nc2ccc(Cl)c(C(F)(F)F)c2)c2nnc(-c3ccccc3)o2)cc1` (stereo unspecified), the inhibition amounted to 1.33%.

`Cc1ccc(N2C(=O)c3ccccc3NC2C(C)Cc2ccc3c(c2)OCO3)cc1` (stereo unspecified): the inhibition was active: 33.7%.

For the molecule `O=C(Cn1c(=O)n(-c2ccc(Cl)cc2)c(=O)c2sc3ccccc3c21)NC1CCCCC1`, the inhibition came to 2.66%.

With `COc1ccc(-c2cc(C(F)(F)F)nc(NCc3ccccc3)n2)cc1`, the inhibition is -1.61%.

Take `COC(=O)c1c(C)[nH]c(C(=O)C(C)Sc2nnc(-c3cc(OC)c(OC)c(OC)c3)o2)c1C` (stereo unspecified): the inhibition was active: 32.1%.

As for `COc1cc(/C=C(\C#N)c2nc3ccc(C)cc3[nH]2)ccc1OC(C)C`, the inhibition was -12.4%.

For the molecule `COc1ccc2cc3cc(C(=O)NCCc4ccccc4)sc3nc2c1Cl`, the inhibition turned out to be 11%.

On to `CCc1ccc(S(=O)(=O)c2c[nH]c3cc(OC)c(OC)cc3c2=O)cc1`, for which the inhibition was determined as 6.04%.

For `CCc1ccccc1N(C)S(=O)(=O)c1ccc2[nH]cc(C(=O)NCCOC)c(=O)c2c1`, the inhibition turned out to be 24.6%.

For `O=C(Nc1ccc(Br)cc1)c1ccc(Br)c(S(=O)(=O)N2CCCCC2)c1`, the inhibition was found to be 1.55%.

On to `Cc1ccc(CCNC(=O)c2cc3sccc3n2Cc2ccc(F)cc2)cc1`, for which the inhibition turned out to be 3.82%.
